Source: PubChem BioAssay AID588342 (National Center for Advancing Translational Sciences (NCATS), 2011)
The whole screen tested about 360,000 compounds, of which about 25,000 (6.9%) were called active. Inconclusive results, whose numbers are uncertain, are shown with a selection of clear calls. The call rests on the fitted dose curve; in most records, active means well fitted inhibition curve with a large enough effect; inconclusive means small, poorly fitted or top-dose-only effect; inactive means flat fitted curve, though single readings scatter. A potency beside an inconclusive call is a rough fit, not a confirmed value.

What follows are compounds tested against Luciferin 4-monooxygenase (Photinus pyralis) (UniProt P08659) (assay: qHTS profiling assay for firefly luciferase inhibitor/activator using purifed enzyme and Km concentrations of substrates (counterscreen for miR-21 project)). Settings: purified FLuc, luminescence inhibition; series mostly up to 57.5 µM; activity change, negative = inhibition: at the top concentration.
Sequence of UniProt P08659 (P08659 whole entry, looked up): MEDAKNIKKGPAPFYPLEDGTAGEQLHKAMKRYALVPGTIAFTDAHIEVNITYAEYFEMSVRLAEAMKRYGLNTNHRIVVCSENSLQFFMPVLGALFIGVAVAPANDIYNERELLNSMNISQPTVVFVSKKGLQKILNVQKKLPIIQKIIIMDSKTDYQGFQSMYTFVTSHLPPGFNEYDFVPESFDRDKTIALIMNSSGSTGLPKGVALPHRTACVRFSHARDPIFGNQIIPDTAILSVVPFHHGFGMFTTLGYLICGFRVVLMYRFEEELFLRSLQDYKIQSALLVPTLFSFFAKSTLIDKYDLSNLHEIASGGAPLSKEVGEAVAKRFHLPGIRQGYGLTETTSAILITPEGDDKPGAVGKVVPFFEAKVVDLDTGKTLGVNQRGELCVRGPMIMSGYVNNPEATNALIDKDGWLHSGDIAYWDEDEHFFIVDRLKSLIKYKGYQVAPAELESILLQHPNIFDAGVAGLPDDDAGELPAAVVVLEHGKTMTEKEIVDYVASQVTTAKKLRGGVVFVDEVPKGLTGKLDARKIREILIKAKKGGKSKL
Procedure, shortened: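 Biochemical qHTS of compounds, final roughly 60 µM downward over six points, against 10 nM purified firefly luciferase using Km concentrations of substrates (10 uM D-luciferin, 10 uM ATP) in Tris acetate pH 7.5 buffer; luminescence output.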
Further: nearly all actives have a fitted effect of over 55% in size.
Potency means the concentration at half of the fitted maximal effect; tags describe the fitted curve by direction and shape.
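Wherever activity change, negative = inhibition is given: plate controls were vehicle for no effect and reference inhibitor for full effect.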

Structure (SMILES) | Potency | activity change, negative = inhibition
CCOc1ccc(NC(=O)c2c(NCc3cccnc3)sc3c2CCCC3)cc1 | inconclusive: 23.9 µM [inhibitor, single point] | –
O=S(=O)(Nc1ccc(Br)cc1F)c1ccc2nc(-c3ccccc3)[nH]c2c1 | inconclusive: 2.39 µM [inhibitor, partial curve, poor fit] | –
COc1ccc(OC)c(Nc2ncnc3c2cnn3-c2ccccc2)c1 | inconclusive: 30.1 µM [inhibitor, partial curve] | –
Fc1ccccc1-c1nc(NCc2ccco2)c2ccccc2n1 | – | inactive: -1.46%
COc1ccc2oc(C(=O)NCC(Cc3ccccc3)N(C)C)c(C)c2c1 (stereo not given) | inconclusive: 21.3 µM [inhibitor, partial curve, poor fit] | –
Cc1ccc(OCC(O)CN2CCOCC2)cc1C (stereo not given) | – | inactive: 1.54%
Cc1cc(C)c(NC(=O)Cn2cc(S(=O)(=O)Cc3ccccc3F)c3ccccc32)c(C)c1 | – | inactive: -0.986%
S=C(NCC1CCCO1)Nc1ccc(Cl)cc1 (stereo not given) | inconclusive: 23.9 µM [inhibitor, single point] | –
COc1ccc(C(=O)NCCn2cc(SCC(=O)N3CCOCC3)c3ccccc32)cc1 | inconclusive: 19 µM [inhibitor, single point] | –
COc1ccc(NC2=Nc3cccc4cccc2c34)cc1OC | inconclusive: 21.3 µM [inhibitor, partial curve] | –
Cc1ccc2nc(C)c(C(=O)N/N=C/c3ccco3)cc2c1 | inconclusive: 23.9 µM [inhibitor, single point] | –
c1ccc(-c2ccccc2OCCCN2CCOCC2)cc1 | inconclusive: 0.012 µM [inhibitor, partial curve, poor fit] | –
COc1ccc(CCC(=O)NCCc2nc3ccccc3[nH]2)cc1 | – | inactive: 2.63%
O=C(N/N=C/c1c(O)ccc2ccccc12)c1[nH]ncc1Br | active: 6.75 µM | –
COc1cc2nc(C3CCC3)n(N)c(=O)c2cc1OC | – | inactive: -2.04%
CCOC(=O)C1CCN(C(=O)c2ccccc2Oc2ccccc2)CC1 | – | inactive: 2.13%
Cc1cccc(-c2noc(-c3cccnc3NCc3ccccc3Cl)n2)c1 | inconclusive: 12 µM [inhibitor, partial curve] | –
CCCN(C(=O)c1nc2nccc(C)n2n1)c1c(N)n(Cc2ccccc2)c(=O)[nH]c1=O | – | inactive: -2.05%
O=c1/c(=C\c2ccc(F)cc2)sc2n1CCCN=2 | active: 13.5 µM | –
O=C(NCCc1ccccc1)c1c(O)c2ccccc2[nH]c1=O | inconclusive: 12 µM [inhibitor, partial curve] | –
CSc1nc2ncc(C#N)cn2n1 | – | inactive: -1.28%
COc1ccc(S(=O)(=O)N(Cc2nc(-c3ccccc3)no2)C2CCCCC2)cc1 | – | inactive: 3.32%
CN(C)S(=O)(=O)c1ccc(SCC(=O)N2CC(=O)Nc3ccccc32)nc1 | – | inactive: -2.46%
CCSC1=C(C#N)C2(CCCC2)C(C#N)=C(N)N1 | inconclusive: 23.9 µM [inhibitor, single point] | –
N#C/C(=C\c1cccc(O)c1)C(=O)N1CCCCC1 | inconclusive: 23.9 µM [inhibitor, partial curve, poor fit] | –

Structure (SMILES) | Potency | activity change, negative = inhibition
CSc1ccc(/C=N/N2CCN(C)CC2)cc1 | active: 21.3 µM | –
Cc1ccc(NC(=O)NC(=O)c2cnccc2C(F)(F)F)c(C)c1 | – | inactive: -20.2%
Cc1cc(=O)n2c(n1)NC(Nc1cccc(C)c1C)=NC2c1ccccc1 (stereo not given) | – | inactive: 0.386%
C=CCn1c(N)c(C(=O)NCCC2=CCCCC2)sc1=S | inconclusive: 13.5 µM [inhibitor, partial curve, poor fit] | –
CCOc1ccc(NS(=O)(=O)c2ccc3[nH]cc(C(=O)N4CCCC4)c(=O)c3c2)cc1 | inconclusive: 12 µM [inhibitor, partial curve, poor fit] | –
Fc1ccccc1Nc1n[nH]c(=S)s1 | inconclusive: 26.9 µM [inhibitor, single point] | –
O=C(C1CCCN(S(=O)(=O)c2ccc(Br)cc2)C1)N1CCN(Cc2ccccc2)CC1 (stereo not given) | – | inactive: 1.12%
CCc1ccccc1N1CC(c2nc3ccccc3n2CCCCOc2ccccc2OC)CC1=O (stereo not given) | – | inactive: -17.1%
CN(C)Cc1cc(O)c(CN(C)C)cc1O | inconclusive: 13.5 µM [inhibitor, partial curve] | –
CC(=O)OCc1nc2ccccc2s1 | active: 5.36 µM | –
COC(=O)Nc1nnc(-c2ccco2)s1 | – | inactive: -14.8%
CC1(C)C=Cc2cc3ccc(=O)oc3cc2O1 | active: 10.7 µM | –
Cc1ccc(CNC(=O)NCc2ccccc2)cc1 | inconclusive: 37.9 µM [inhibitor, single point] | –
CC(=O)Oc1ccc2occ(/C=N/c3cc(=O)[nH]c(=S)[nH]3)c(=O)c2c1 | inconclusive: 37.9 µM [inhibitor, partial curve, poor fit] | –
COc1ccccc1NC(=O)c1sc2nc(C)c(C(=O)Nc3ccc(Cl)cc3)c(-c3ccc(Br)cc3)c2c1N | – | inactive: -1.17%
Cc1ccccc1OCc1nc2ccccc2c(=O)n1N | inconclusive: 23.9 µM [inhibitor, single point] | –
CN(Cc1ccccc1)C(=O)C1CCCN1S(=O)(=O)c1ccc2c(c1)n(C)c(=O)c(=O)n2C (stereo not given) | – | inactive: -0.672%
Cc1ccc(C(=O)NNC(=O)c2ccc3ncccc3c2)cc1 | inconclusive: 37.9 µM [inhibitor, partial curve, poor fit] | –
COc1ccccc1-c1cc2ccccc2[nH]1 | active: 15.1 µM | –
CN(C)c1ccnc2sc(C(=O)NCc3ccccc3)c(N)c12 | inconclusive: 21.3 µM [inhibitor, single point] | –
N/C(=N\OC(=O)c1ccccc1Cl)c1cccc([N+](=O)[O-])c1 | active: 1.2 µM | –
Cc1ccc(C(=O)c2cn[nH]c2-c2ccccc2O)cc1 | inconclusive: 37.9 µM [inhibitor, partial curve, poor fit] | –
Cc1ccc(NC(=O)c2cccc(NC3=NC4CS(=O)(=O)CC4S3)c2)cc1 (stereo not given) | inconclusive: 19 µM [inhibitor, partial curve, poor fit] | –
CC(=O)c1ccc2c(c1)C1C=CCC1C(C(=O)O)N2 (stereo not given) | inconclusive: 26.9 µM [inhibitor, partial curve, poor fit] | –
CCOC(=O)C(=O)Cc1nc2ccccc2s1 | active: 19 µM | –
